# Source: PMC12136788
# This is one part of the list.
# T1: UNK ZnF1-3 (human, UniProt Q9C0B0 31-174)
# T1 sequence: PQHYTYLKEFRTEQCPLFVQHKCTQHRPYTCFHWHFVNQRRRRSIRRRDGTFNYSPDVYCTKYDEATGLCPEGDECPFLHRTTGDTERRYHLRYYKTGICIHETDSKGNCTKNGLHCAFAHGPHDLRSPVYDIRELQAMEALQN
# B1: 54184324_54186607_390_CDS_ENSMUSG00000021474_ENSMUST00000021930|mouse|control|control (ssRNA)
# RNA: GGGAGUUCUACAGUCCGACGAUCCACAGCCGGUGUGGUCCGGUAGAAGGUCAUCAUGCAGCCUGUGAUGGUCAUGUUCAUCGGGACCUGAGCUGACAUUCUUCCUAUCAGAGUCAUCUUUUCACCGGUGUCAGGAUGGAAGGCCAACAGAGGAUUGAGCAUCA
# B2: chr6:38652254:38652255:-_ENSG00000124767_ENST00000373365|hu_hu|hu_hu_hu_mus_False|48_58 (ssRNA)
# RNA: GGGAGUUCUACAGUCCGACGAUCCGAGAACUUCAUAGCAGGGAAGUCAAGCUUCUGCAGGAGGGUCAGUCCAAGAACUCUAGUAUAAAAAUCCAGUGACUUCUUAGGAUCCUUAAUUCUUAGCAUCGUUUGCUGCAGUAGAAACAACAGAGGAUUGAGCAUCA
# B3: chr2:15768762:15768763:+_ENSG00000079785_ENST00000233084|hu_mus|motif|central (ssRNA)
# RNA: GGGAGUUCUACAGUCCGACGAUCAGGCAGGGUGACGUUGAUCACAUAAGGAACGCCAUGGAUAUCAAUCCCUCUAGCAGCGGCAUCUGUGCAAAUCAAGAAUCUUACGUCUCCUUUCUUAAAUCGUUCCAAGUUUUGCUUUCUCAACAGAGGAUUGAGCAUCA
# B4: chr5:31803264:31803265:+_ENSMUSG00000064037_ENSMUST00000076949|mus_hu|FALSE|FALSE (ssRNA)
# RNA: GGGAGUUCUACAGUCCGACGAUCUGGAAAUGAGGAUGCAAGGGCUUCAGUGAUAAUUGUCCCAGAAGCUGACCAGGUGAAUACCUCAAUCUGUCCAGGUGUGUCAAUCAACACAUAUUUGGACAUGUUCUGGGCCUUCUCAAUCAACAGAGGAUUGAGCAUCA
# B5: chr4:83978119:83978120:+_ENSG00000138663_ENST00000264389|hu_hu|FALSE|FALSE (ssRNA)
# RNA: GGGAGUUCUACAGUCCGACGAUCAUUUAUGUAAGCCUCUGCCUGGACUGGAUCAUCAUCCUCCAGAUAUAGCCUAGCAAUCUUCAAGUAAGUCUCCAGUUUAUAAUCUACAUUGUACUGUUUUUGUCCUGUUUCCAAAGGAAUCAACAGAGGAUUGAGCAUCA
# B6: chr7:135612270:135612271:-_ENSG00000105887_ENST00000393085|hu_mus|hu_hu_hu_mus_False|88_108 (ssRNA)
# RNA: GGGAGUUCUACAGUCCGACGAUCGUUUCUGAGAUGUAUGUUAAAUAUUCAGUGGAGGGAAAACAAAACUUAACCUUUUAUUAAUGCGUGUUGUACCAAAAGCAGACAUUUUAGCUUCAUUUAUUCAAAAAUAUUAACAUUAAGCAACAGAGGAUUGAGCAUCA
# B7: chr1:93988920:93988921:+_ENSG00000137942_ENST00000370253|hu_hu|FALSE|FALSE (ssRNA)
# RNA: GGGAGUUCUACAGUCCGACGAUCCAGAUCAUGAGCAUAUCUCAUUAAUUCACCAUACACUCUGUGCGCCAUUUCUUCUGCUACAACUUCUCGCUGUCCUGCAUAGUCAUUUAACUCAUUAAGGAUAUUAAAAAAGGCUACACACAACAGAGGAUUGAGCAUCA
# B8: 57543866_57545502_978_CDS_ENSMUSG00000062949_ENSMUST00000101527|mouse|control|control (ssRNA)
# RNA: GGGAGUUCUACAGUCCGACGAUCUAAAUAAACAAUCAAGAAGGCAUUAAUAGAUUUUUCAACAGCAGAACAUUUCUGAGAUUUCCCUUGGUAGUUCAAAGCCAUUUUGGUUUCCAUCCCAGUGUAAACAGCAACUCCAUAUAUCAACAGAGGAUUGAGCAUCA
# B9: chr10:33214929:33214930:-_ENSG00000150093_ENST00000302278|hu_hu|hu_hu_hu_mus_True|78_88 (ssRNA)
# RNA: GGGAGUUCUACAGUCCGACGAUCAACAAGUUCAUUGAAAAACUCUCCUUUAUUAGUAAGACUGAGCACAUUUUUGUAGCUAAAUGGGCUGGUGCAGUUUUGUUCACUUGUACAAGGAUUUCUUAGCUUUGCUGGGGUUGUGCUCAACAGAGGAUUGAGCAUCA
# B10: chr5:95128998:95128999:+_ENSG00000164292_ENST00000379982|hu_mus|motif|central (ssRNA)
# RNA: GGGAGUUCUACAGUCCGACGAUCAGCUUUUGUUCCCUUUUAAGACCACCACAGUCUUUAAAAGAUAACUAGUAAGAAGCGGUAUGGUGACUUUUAAAACAUAUUGAUUUUAGUUAUAAGAAUUUUUCCUGGAAUCCAGAAGUACAACAGAGGAUUGAGCAUCA
# B11: chr11:75570464:75570465:+_ENSMUSG00000020849_ENSMUST00000067664|perfect_dup|FALSE|FALSE (ssRNA)
# RNA: GGGAGUUCUACAGUCCGACGAUCACGGUCGGGGGAAUUAAGAAUUUCAUAGUAGAAUACGGAAAAGUUGAGAGCAAGACCUAAACGAAUGGGGUGCGUUGGAGGAAGUUCUGUCAUCGCAAUGUCACUAGCAGCUUUGUAAGCCAACAGAGGAUUGAGCAUCA
# B12: chr5:71490416:71490417:+_ENSG00000131711_ENST00000296755|hu_hu|FALSE|FALSE (ssRNA)
# RNA: GGGAGUUCUACAGUCCGACGAUCAUACUGCAUUUCCUUGCUGCUCUUGACUGGAUUAAGCACAUACAUCUCAAGUUUACCUACUCCCAUUUUUUGGAAAAGAAUGACAGGAUCAAUAGUAUUGCCUACACUUCUAAACAGAGGCAACAGAGGAUUGAGCAUCA
# B13: chr7:108137184:108137185:-_ENSG00000135241_ENST00000257694|hu_mus|FALSE|FALSE (ssRNA)
# RNA: GGGAGUUCUACAGUCCGACGAUCUCGAUAGAGUUCCUCACAUUCAUCCAGCGGCAUGUGAAACAAUCCCAGCAUAAAUGCUAAUAUGGCCCCUGUGCUUACUCCACAGAUGUAAUCAAAAAGCUGAUGAAUCGGCUUCUGAGUCAACAGAGGAUUGAGCAUCA
# B14: chr10:5827197:5827198:-_ENSG00000057608_ENST00000380191|perfect_dup|FALSE|FALSE (ssRNA)
# RNA: GGGAGUUCUACAGUCCGACGAUCAUACAGGUACGGGCUUUUACCGUAUCUUGCCAAAGACUCGCUGUAAAGUUUAAUUCUAUUAAUGGUUUCACAACACGGCUGAUCUAAGUAGUCAUCUGUUCUGUACAGUGCAAGAGAAUGCAACAGAGGAUUGAGCAUCA
# B15: chr1:220276048:220276049:+_ENSG00000067704_ENST00000302637|hu_hu|hu_hu_hu_mus_True|28_88 (ssRNA)
# RNA: GGGAGUUCUACAGUCCGACGAUCGCAAAUUGCCUGGUUGGCGGGAAUCGUCCAAGGCUGGGUGGUCCAAACUAAAACGCUAACAGGGGAUGAGGCAUCUGUAAGAGAUGCCAAUUUCGGAGGAGGUCUCAGGAGGGGGAAUCUCAACAGAGGAUUGAGCAUCA
# B16: 98041578_98045231_405_CDS_ENSMUSG00000018160_ENSMUST00000107545|mouse|control|control (ssRNA)
# RNA: GGGAGUUCUACAGUCCGACGAUCGGCUAUAGAUUCCAAACGAUCAGUCAUUGCUGGCAAAGAUGUUACUUUGAGAGCCUUCUGCAAUGUCUCCAAACAGCUGACCAAAUGCUGAUGCCCUCCAGAACUCAUUACGACCCUCUUCAACAGAGGAUUGAGCAUCA
# B17: chr9:14812383:14812384:-_ENSMUSG00000031934_ENSMUST00000164273|mus_mus|mus_mus_mus_hu_True|1_68 (ssRNA)
# RNA: GGGAGUUCUACAGUCCGACGAUCAUAGCCCAGGUAGAUACACGCUAACAGUAUAAUGAUGAGUGUCACCAGCCGGCAGCUAAUGUACUUGAUGAUUAAAUUAUUAGAAUUUUUCUUUGUCUUCAAGUACUGCUCCACGAUUGGCAACAGAGGAUUGAGCAUCA
# B18: 243778409_243800978_756_CDS_ENSG00000117020_ENST00000366539|human|control|control (ssRNA)
# RNA: GGGAGUUCUACAGUCCGACGAUCAUGUCUAGUGUUCUUUAAUACUCUGCUUUCAGUUAGAGUGUGUGCCACUUCAUCCUUUGCAAUAAUGACUUCUUUCUUCAGAAUCUUCAUAGCAUAGUAUUUUCCACUUGCCUUCUCUCGCAACAGAGGAUUGAGCAUCA
# B19: chr14:66974463:66974464:+_ENSMUSG00000022044_ENSMUST00000074523|mus_hu|mus_mus_mus_hu_False|68_108 (ssRNA)
# RNA: GGGAGUUCUACAGUCCGACGAUCUUGUAGGAUGAUUUAUUCAGGGGAUCGGCCAGGAAGCAGGAGCAGAACAGAGACACCAGCGGGAGCUCCUUCAUCUUCUCUUUGUAGGCAGCAAGGGUCAUGUUUCUGGGAUCUGGUGGCCAACAGAGGAUUGAGCAUCA
# B20: chr11:87793186:87793187:-_ENSMUSG00000020483_ENSMUST00000020775|mus_hu|FALSE|FALSE (ssRNA)
# RNA: GGGAGUUCUACAGUCCGACGAUCCACAGUCUGGGAGGGCAGGGGGAAACACAGAUUUGGACAUUCAUAAAAAAAUAAAACCUAAAAUCAAGCACUCAAUUUUGUGCCCACUGAAGGGUUUGAUAAAGGGAACUCAGUCACCACCAACAGAGGAUUGAGCAUCA
# B21: chr11:31834330:31834331:+_ENSMUSG00000020300_ENSMUST00000109412|mus_hu|FALSE|FALSE (ssRNA)
# RNA: GGGAGUUCUACAGUCCGACGAUCUAAAGUUCAGAGUAAUAGAUAAUCAUUGUUUAUGCCCUGUAAAUUGAAGUGUAACCAAUAAUCUGUAAACACACUUGUCACACAAUCACAAGUAAAUAUUAGUAGAAUAACAAUUUCUUACAACAGAGGAUUGAGCAUCA
# B22: chr18:21005031:21005032:-_ENSMUSG00000033382_ENSMUST00000025177|mus_mus|FALSE|FALSE (ssRNA)
# RNA: GGGAGUUCUACAGUCCGACGAUCAAACUUCCAGAGUAAUGACAAAUCAGACAGCAAAAGCGGAACUUUUAAAGGGUUUCUAAAAGCCACUUCCACAGUAAUUGGCUCUUCUACAACUGCAAGUGGAAACCUGGAGUUAUCGGACAACAGAGGAUUGAGCAUCA
# Target: T1, UNK ZnF1-3
# Assay: nsRBNS (natural sequence RNA bind-n-seq); RBNS binding buffer (assumed for nsRBNS): 25 mM Tris pH 7.5, 150 mM KCl, 3 mM MgCl2, 0.01% Triton X-100, 500 ug/ml BSA, 20 U/ml SUPERase-In, 4 C; UNK is unkempt and MSI1 is Musashi-1; names of the RNAs are library labels; protein concentration not given here; high values mean tight binding
row,Binder,binding signal [enrichment R]
1,B1,0.862
2,B2,1
3,B3,0.966
4,B4,0.797
5,B5,0.825
6,B6,1.47
7,B7,1.68
8,B8,1.55
9,B9,0.839
10,B10,1.73
11,B11,1.84
12,B12,1.26
13,B13,0.985
14,B14,0.743
15,B15,3.09
16,B16,0.998
17,B17,0.984
18,B18,0.379
19,B19,2.9
20,B20,3.07
21,B21,1.74
22,B22,0.971
